Experimental findings from publication PMC4336329 (PLoS ONE, 2015) are described below.

Structures are written as SMILES. About 2,200 (0.71%) of roughly 310,000 compounds showed an effect of 50% or more. The effect is printed as a negative number. The list shows a part of the results.

The target of the experiment is human ether-à-go-go-related gene (hERG) potassium channel (human, UniProt Q12809). In words: primary screen, population patch clamp on CHO cells stably expressing hERG.
Chain of human ether-à-go-go-related gene (hERG) potassium channel (Q12809 whole entry, looked up): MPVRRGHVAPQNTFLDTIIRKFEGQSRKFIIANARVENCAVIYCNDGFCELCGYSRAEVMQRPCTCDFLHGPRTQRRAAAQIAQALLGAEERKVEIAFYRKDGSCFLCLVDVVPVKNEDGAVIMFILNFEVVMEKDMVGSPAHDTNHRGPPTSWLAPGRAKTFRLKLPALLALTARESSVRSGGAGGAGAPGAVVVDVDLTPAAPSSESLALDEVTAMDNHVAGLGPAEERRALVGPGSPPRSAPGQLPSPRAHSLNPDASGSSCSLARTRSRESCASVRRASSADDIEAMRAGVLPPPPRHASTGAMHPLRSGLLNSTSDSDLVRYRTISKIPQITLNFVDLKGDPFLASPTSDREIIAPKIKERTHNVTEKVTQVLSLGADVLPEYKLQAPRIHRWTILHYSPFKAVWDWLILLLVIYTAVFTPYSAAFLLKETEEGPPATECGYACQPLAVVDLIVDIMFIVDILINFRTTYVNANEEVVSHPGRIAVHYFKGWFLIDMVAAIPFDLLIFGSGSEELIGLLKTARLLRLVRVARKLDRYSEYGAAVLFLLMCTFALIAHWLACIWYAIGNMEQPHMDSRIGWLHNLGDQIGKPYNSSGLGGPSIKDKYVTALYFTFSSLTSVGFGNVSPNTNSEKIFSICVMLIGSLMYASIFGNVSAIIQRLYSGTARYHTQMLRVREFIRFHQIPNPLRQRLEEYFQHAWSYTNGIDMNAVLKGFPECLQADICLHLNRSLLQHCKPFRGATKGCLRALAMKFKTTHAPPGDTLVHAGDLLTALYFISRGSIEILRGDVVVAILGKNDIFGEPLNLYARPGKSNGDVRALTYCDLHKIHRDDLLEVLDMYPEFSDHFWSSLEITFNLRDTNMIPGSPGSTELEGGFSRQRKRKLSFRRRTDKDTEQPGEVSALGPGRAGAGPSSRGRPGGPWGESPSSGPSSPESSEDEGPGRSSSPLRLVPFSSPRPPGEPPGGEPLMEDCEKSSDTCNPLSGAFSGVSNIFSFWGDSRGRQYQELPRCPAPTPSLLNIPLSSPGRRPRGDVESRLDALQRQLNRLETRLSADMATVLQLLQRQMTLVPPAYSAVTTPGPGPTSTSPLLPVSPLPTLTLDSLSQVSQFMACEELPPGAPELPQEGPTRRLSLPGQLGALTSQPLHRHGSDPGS
As to `CC1Cc2ccccc2N1c1ncnc2nc[nH]c12` (centres unmarked), the “hERG current change (%, negative = inhibition) at 1uM” value came to 3.01%.
Regarding `Cc1cc(C)c2cc(C#N)c(N3CCCN(S(=O)(=O)c4ccccc4)CC3)nc2c1`, the “hERG current change (%, negative = inhibition) at 1uM” value came to 8.61%.
Consider `Cc1nc(Cl)sc1C(=O)Nc1cccc(Cl)c1C`, for which the “hERG current change (%, negative = inhibition) at 1uM” value turned out to be 0.96%.
On to `CN(Cc1ccccc1)C(=O)c1ccccc1Br`, for which the “hERG current change (%, negative = inhibition) at 1uM” value was found to be 6.97%.
In the case of `COc1ccc2nc3ccccc3nc2c1N`, the “hERG current change (%, negative = inhibition) at 1uM” value was 11.8%.
Take `CCOc1cc(/C=N/NC(=S)Nc2ccccc2C(F)(F)F)ccc1OCC(=O)N1CCOCC1`: the “hERG current change (%, negative = inhibition) at 1uM” value came out at 15.5%.
Next, `Cc1ccc(S(=O)(=O)NCc2ccc(C(=O)N3CCCC3)cc2)cc1`: 5.98%; `CC1(C)Cc2c(cnn2-c2cccc(F)c2)C(NC(=O)CCN2CCCC2=O)C1` (centres unmarked): 0.533%; `O=C(c1ccc(S(=O)(=O)N2CCCCC2)cc1)N1CCN=C1SCc1cccnc1`: 2.7%.
The same measure for `O=C(NC(=S)NNC(=O)c1ccco1)c1ccc(Br)cc1`: 15.8%.
The same measure for `CC(=O)N(Cc1cc2cc(C)ccc2[nH]c1=O)c1cccc(C)c1C`: 18.5%; for `COc1cc(-c2ccc(=O)[nH]n2)ccc1OC(F)F`: 0.0767%.
Regarding `CC(C)c1nnc(SCC(=O)N2CCN(C(=O)c3ccco3)CC2)n1N`, the “hERG current change (%, negative = inhibition) at 1uM” value is recorded as 11%.
Next, `Cc1ccc(NC(=O)/C(C#N)=C/c2cn(CC(=O)NCc3ccco3)c3ccccc23)cc1C`: 9.74%.
Take `N#Cc1c(-c2ccc(Cl)cc2)c2c([nH]c1=S)CCCC2`: the “hERG current change (%, negative = inhibition) at 1uM” value was found to be 11.5%.
The same measure for `CCCCCCCN1C2=NCCCN2c2ccccc21.Cl`: -21.6%; for `CN(CC(=O)Nc1cccc(F)c1)C(=O)CCc1nc2ccccc2c(=O)[nH]1`: 5.68%.
The same measure for `COc1ccc([N+](=O)[O-])cc1NS(=O)(=O)c1ccc(C(=O)N2CCCC2)cc1`: -3.99%; for `Cc1c(C(=O)N2CCC3(CC2)OCCO3)oc2ccc(S(=O)(=O)N3CCCCC3)cc12`: 20.6%; for `O=[N+]([O-])c1cc(CN2CCCC2)ccc1Sc1ccc(Cl)cc1`: -3.02%.
With `CC1CCCCC1NC(=O)NC(=O)CCl.Cl` (centres unmarked), the “hERG current change (%, negative = inhibition) at 1uM” value was found to be 1.4%.
Take `CCCSc1nc2c(cnn2-c2ccc(F)cc2)c(=O)[nH]1`: the “hERG current change (%, negative = inhibition) at 1uM” value came to 9.55%.
Next, `CCOc1ccc(C2=Nn3c(nnc3-c3ccccc3OC)SC2)cc1`: -11.7%; `COc1ccc(OC)c(-c2cn(S(=O)(=O)c3ccccc3)nc2N)c1`: -2.5%; `Cn1c2c(c(=O)n(C)c1=O)C(c1ccc(C(F)(F)F)cc1)CC(=O)N2` (centres unmarked): 11.4%.
On to `COC(=O)/C=C1\C(=O)N(c2nc3ccc(OC)cc3s2)C(=S)N1c1ccc(F)cc1`, for which the “hERG current change (%, negative = inhibition) at 1uM” value worked out at 9.1%.
Next, `CN(C)CCCNC(=O)C(=O)NCC1OCCN1S(=O)(=O)c1cccs1` (centres unmarked): 11.9%.
The same measure for `O=C(NC1CCCc2ccccc21)C1CCN(S(=O)(=O)c2ccccc2F)CC1` (centres unmarked): 5.2%.
Next, `CCc1cc2c(SCC(=O)NCC3CCCO3)ncnc2s1` (centres unmarked): 9.31%.
For `CC(C)C(=O)Nc1cccc(NC(=S)NC(=O)c2ccc(Cl)cc2)c1`, the “hERG current change (%, negative = inhibition) at 1uM” value is listed as -2.36%.
As for `N#C/C(=C\c1ccc(F)c(F)c1)C(=O)NC1CCCCC1`, the “hERG current change (%, negative = inhibition) at 1uM” value was found to be 2.36%.
Consider `O=C(CC(=O)Nc1ccc(F)cc1F)Nc1ccc(F)cc1F`, for which the “hERG current change (%, negative = inhibition) at 1uM” value is 14.4%.
As for `CCOc1ccc(NC(=O)[C@@H]2CCC(=O)N2C2OC(=O)c3ccccc32)cc1` (some centres unmarked), the “hERG current change (%, negative = inhibition) at 1uM” value amounted to 7.07%.
The same measure for `COc1ccc(C)cc1NC(=O)CSc1nnc(CC(=O)Nc2ccccc2C)n1C`: -8.28%; for `CCCC(c1nnnn1CC(=O)OCC)N(Cc1cc2c(C)cc(C)cc2[nH]c1=O)C1CCCC1` (centres unmarked): 13.8%; for `CCOc1ccccc1C1C(C#N)=C(N)Oc2n[nH]c(CC)c21` (centres unmarked): -0.983%.
Next, `O=C(Nc1ncc2c(n1)CC(c1ccc(Cl)cc1)CC2=O)c1ccco1` (centres unmarked): -19.9%; `Cc1cc(C)c(C(=O)CSc2nnc(N)s2)cc1C`: 6.02%.
On to `CC(=O)c1cccc(NC(=O)NC2CCCCCCC2)c1`, for which the “hERG current change (%, negative = inhibition) at 1uM” value came to 10.6%.
In the case of `O=C(Nc1cccc(NC(=O)c2ccc(-c3ccc(Br)cc3)o2)c1)c1ccco1`, the “hERG current change (%, negative = inhibition) at 1uM” value worked out at 15.8%.
For `CSc1ccc(CN2CCN(Cc3ccccc3)C(CCO)C2)cc1` (centres unmarked), the “hERG current change (%, negative = inhibition) at 1uM” value is given as -12%.
Next, `O=C(COc1ccccc1Cl)Nc1nnc(S(=O)(=O)N2CCCC2)s1`: 1.51%; `O=C(CSc1nnc2ccccn12)N1CCc2ccccc2C1`: 7.78%.
Next, `CCNC(=S)N1CCC(n2cnc3ccccc32)CC1`: 5.85%; `CCN(CC)c1ccc([C@H]2[C@@H]3CCCC[C@]3(O)CCN2CC(=O)NCc2ccco2)cc1`: 4.53%.
Next, `CC(=O)C1=C(C)N(c2ccccc2)C(=O)C1(NS(=O)(=O)c1ccc(N)cc1)C(F)(F)F` (centres unmarked): 14.2%.
As for `Cc1ccc(/C=C2\SC(=S)N(CCCC(=O)Nc3cccnc3)C2=O)cc1`, the “hERG current change (%, negative = inhibition) at 1uM” value was 13.2%.
With `O=C(Nc1ccc(Br)cc1)N1C[C@H]2C[C@@H](C1)c1cccc(=O)n1C2`, the “hERG current change (%, negative = inhibition) at 1uM” value came to 5.14%.
Next, `Cc1cc(C)c(NC(=O)COC(=O)C2CCC2)c(Cl)c1`: 13.1%; `CC1=C(C(=O)OC(C)C)C(c2ccccc2)NC(=O)N1C` (centres unmarked): 10.4%; `Cc1nn(CC(=O)N2CCCC2)c(=O)c2cc3cc(F)ccc3n12`: 16%.
Next, `Cc1cc(N/N=C/c2cccc(Cl)c2)nc(NCc2ccccc2)n1`: 6.28%.
The same measure for `O=C(c1cc([N+](=O)[O-])ccc1Cl)N1CCN(Cc2ccc3c(c2)OCO3)CC1`: 8.29%; for `O=C(NCCc1ccccc1)c1ccc(Cl)c(S(=O)(=O)N2CCCC2)c1`: 10.3%; for `CCOC(=O)c1oc2ccc(Br)cc2c1CSc1nnc(C)s1`: 15.1%.
Regarding `COc1ccccc1CN1C[C@@H]2C[C@@H](c3cccc(O)c3)N3CCC[C@@]23C1=O`, the “hERG current change (%, negative = inhibition) at 1uM” value is listed as 0.386%.
Regarding `CCOC(=O)c1sc(NC(=O)CSc2nc(-c3ccco3)cc(C(F)(F)F)n2)c(C#N)c1C`, the “hERG current change (%, negative = inhibition) at 1uM” value worked out at 4.36%.
As for `O=C(N/N=C/c1cc2c(cc1Br)OCO2)C1COc2ccccc2O1` (centres unmarked), the “hERG current change (%, negative = inhibition) at 1uM” value is 9.7%.
The same measure for `Cc1ccn(CC(C)C(=O)O)n1` (centres unmarked): 11.2%; for `O=[N+]([O-])c1ccccc1S(=O)(=O)Nc1cccc(-c2ccc3nncn3n2)c1`: -0.576%.
Next, `COc1ccc(NC(=S)NCCCN2CCN(C3CCCCC3)CC2)cc1`: -2.92%; `C/C(=N\OCc1nc2ccccc2c(=O)n1/N=C/c1cc(C)cc([N+](=O)[O-])c1O)c1ccccc1`: 4.34%; `CCc1ccc(OCCCC(=O)Nc2nccs2)cc1`: 8.02%.
The same measure for `CCN1C(=O)CSC1=NC1C2CC3CC(C2)CC1C3` (centres unmarked): 15.3%; for `CCn1c(SCC(=O)Nc2ccccc2Br)nnc1-c1cnccn1`: 4.44%.
For `COc1ccc(C(=O)Nc2ccc(NC(=O)C3CC3)cn2)cc1`, the “hERG current change (%, negative = inhibition) at 1uM” value turned out to be 10.2%.
The same measure for `Cc1ccc(S(=O)(=O)Nc2cccc(Oc3cnccn3)c2)cc1`: -2.34%; for `Cc1ccc(NS(=O)(=O)c2cccc(C(=O)n3ncc(C#N)c3N)c2)c(C)c1`: -5.14%.
Next, `COc1ccc(CNC(=O)c2ccc3c(c2)N(C)C(=O)CS3=O)cc1` (centres unmarked): 7.95%; `COC(=O)CCC(=O)NNC(=O)c1cccc(Cl)c1`: 6.3%; `Cc1cccc(N2CCN(C(=O)c3ccc(CS(=O)(=O)c4ccccc4C)o3)CC2C)c1` (centres unmarked): 1.54%.
Next, `CCOC(=O)Cc1nnc(Nc2ccc(C(=O)NC)cc2)c2ccccc12`: 12.7%; `Cc1n[nH]c(=O)nc1NCc1ccccc1`: 12.5%.
For the compound `Cc1cc(C(=O)N2CCN(Cc3ccccc3)CC2)on1`, the “hERG current change (%, negative = inhibition) at 1uM” value turned out to be 6.76%.
Next, `O=C(Nn1c(C2CCC2)nc2ccccc2c1=O)C1CCC1`: -0.591%.
Next, `Cc1ccc(C(=O)NC(C)c2ccc3c(c2)OCO3)s1` (centres unmarked): -5.06%; `COc1ccc(OC)c(NC(=O)c2ccccc2N(C)S(=O)(=O)c2ccc(C)cc2)c1`: 21.3%.
Next, `COc1ccc(/C=C/C(=O)c2c(O)n(CCC3=CCCCC3)c(=O)[nH]c2=O)cc1OC`: 10.1%; `O=C(/C=C/c1c(Cl)cccc1Cl)NCc1ccccc1`: 13.7%; `Cc1ccccc1NC(=O)C1C2CCC(O2)C1C(=O)O` (centres unmarked): 15.7%.
For `CCOP(=O)(OCC)C(Nc1cccc(C(F)(F)F)c1)c1ccc(F)cc1` (centres unmarked), the “hERG current change (%, negative = inhibition) at 1uM” value amounted to 4.76%.
`CN(CCO)c1ncnc2nc[nH]c12`: the “hERG current change (%, negative = inhibition) at 1uM” value is given as -1.8%.
Next, `CN(c1cccc(NC(=O)CN(c2ccc(F)cc2)S(C)(=O)=O)c1)S(C)(=O)=O`: 2.14%.
`CC(=O)c1ccc(OCc2cc(C(=O)NC(C)Cc3ccccn3)no2)cc1` (centres unmarked): the “hERG current change (%, negative = inhibition) at 1uM” value worked out at 3.22%.
The same measure for `N#C/C(=C(/O)CSc1n[nH]c(N)n1)c1nc2ccccc2[nH]1`: 3.71%.
Next, `S=C(NCCc1ccc(Cl)cc1)NC1CCCCC1`: 7.17%; `O=C1c2ccccc2C(=O)c2c1cccc2N(CCO)CCO`: 13.8%; `CCCc1cc(C(=O)Cc2ccccn2)c(O)cc1O`: 8.83%.
The same measure for `Cc1cccc(CSc2nnc(-c3ccco3)n2C)c1`: 1.27%.
